According to PMC4441479:
No constants are given. Whether binding was seen depends on the method and setting. In cells and extracts the contact can be indirect. Some entries that bind do so weakly or less than the wild type. For part of these data: Sequences can lack the tags named with a protein.

Protein sequences, listed by entry. Tags and fused reporters are not part of them.
UniProt Q7Z2W4: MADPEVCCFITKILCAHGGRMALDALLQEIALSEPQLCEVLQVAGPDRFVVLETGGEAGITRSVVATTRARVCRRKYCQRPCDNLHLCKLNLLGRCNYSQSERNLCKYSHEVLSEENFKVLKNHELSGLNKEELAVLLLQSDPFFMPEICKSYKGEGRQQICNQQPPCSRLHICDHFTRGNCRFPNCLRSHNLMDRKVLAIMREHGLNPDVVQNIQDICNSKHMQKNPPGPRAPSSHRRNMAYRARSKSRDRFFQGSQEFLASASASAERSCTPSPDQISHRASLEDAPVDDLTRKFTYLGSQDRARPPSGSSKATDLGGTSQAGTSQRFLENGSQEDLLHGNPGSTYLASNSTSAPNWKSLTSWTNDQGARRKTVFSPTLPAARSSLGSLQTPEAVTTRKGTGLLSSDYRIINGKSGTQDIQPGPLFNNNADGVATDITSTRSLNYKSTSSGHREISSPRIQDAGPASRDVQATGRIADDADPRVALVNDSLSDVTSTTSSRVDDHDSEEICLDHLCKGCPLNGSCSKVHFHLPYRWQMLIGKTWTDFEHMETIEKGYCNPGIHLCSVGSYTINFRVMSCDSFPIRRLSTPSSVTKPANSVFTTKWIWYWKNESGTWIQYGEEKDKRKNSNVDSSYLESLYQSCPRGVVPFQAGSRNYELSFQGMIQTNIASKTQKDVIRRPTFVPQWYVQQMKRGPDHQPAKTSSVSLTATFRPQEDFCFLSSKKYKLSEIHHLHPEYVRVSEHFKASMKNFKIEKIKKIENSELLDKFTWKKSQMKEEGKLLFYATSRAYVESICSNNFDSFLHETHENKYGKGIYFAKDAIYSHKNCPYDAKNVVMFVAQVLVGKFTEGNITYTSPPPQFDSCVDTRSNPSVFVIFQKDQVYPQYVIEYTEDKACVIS
UniProt Q9UN81: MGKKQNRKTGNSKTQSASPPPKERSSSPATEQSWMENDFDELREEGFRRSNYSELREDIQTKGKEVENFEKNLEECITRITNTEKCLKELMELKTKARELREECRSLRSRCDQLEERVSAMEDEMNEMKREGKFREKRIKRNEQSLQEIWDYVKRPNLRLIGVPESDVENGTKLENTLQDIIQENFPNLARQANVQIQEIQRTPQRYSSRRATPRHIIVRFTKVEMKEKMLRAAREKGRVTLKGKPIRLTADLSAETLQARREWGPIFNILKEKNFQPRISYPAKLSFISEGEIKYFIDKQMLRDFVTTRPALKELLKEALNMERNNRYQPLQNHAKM

B1: Moloney leukemia virus 10, homolog (mouse) (protein, UniProt Q9HCE1-1 1-1003)
chain: MPSKFSCRQLREAGQCFESFLVVRGLDMETDRERLRTIYNRDFKISFGTPAPGFSSMLYGMKIANLAYVTKTRVRFFRLDRWADVRFPEKRRMKLGSDISKHHKSLLAKIFYDRAEYLHGKHGVDVEVQGPHEARDGQLLIRLDLNRKEVLTLRLRNGGTQSVTLTHLFPLCRTPQFAFYNEDQELPCPLGPGECYELHVHCKTSFVGYFPATVLWELLGPGESGSEGAGTFYIARFLAAVAHSPLAAQLKPMTPFKRTRITGNPVVTNRIEEGERPDRAKGYDLELSMALGTYYPPPRLRQLLPMLLQGTSIFTAPKEIAEIKAQLETALKWRNYEVKLRLLLHLEELQMEHDIRHYDLESVPMTWDPVDQNPRLLTLEVPGVTESRPSVLRGDHLFALLSSETHQEDPITYKGFVHKVELDRVKLSFSMSLLSRFVDGLTFKVNFTFNRQPLRVQHRALELTGRWLLWPMLFPVAPRDVPLLPSDVKLKLYDRSLESNPEQLQAMRHIVTGTTRPAPYIIFGPPGTGKTVTLVEAIKQVVKHLPKAHILACAPSNSGADLLCQRLRVHLPSSIYRLLAPSRDIRMVPEDIKPCCNWDAKKGEYVFPAKKKLQEYRVLITTLITAGRLVSAQFPIDHFTHIFIDEAGHCMEPESLVAIAGLMEVKETGDPGGQLVLAGDPRQLGPVLRSPLTQKHGLGYSLLERLLTYNSLYKKGPDGYDPQFITKLLRNYRSHPTILDIPNQLYYEGELQACADVVDRERFCRWAGLPRQGFPIIFHGVMGKDEREGNSPSFFNPEEAATVTSYLKLLLAPSSKKGKARLSPRSVGVISPYRKQVEKIRYCITKLDRELRGLDDIKDLKVGSVEEFQGQERSVILISTVRSSQSFVQLDLDFNLGFLKNPKRFNVAVTRAKALLIIVGNPLLLGHDPDWKVFLEFCKENGGYTGCPFPAKLDLQQGQNLLQGLSKLSPSTSGPHSHDYLPQEREGEGGLSLQVEPEWRNEL
B2: endogenous MOV10 (2102Ep cells) (protein, UniProt Q9HCE1-1 1-1003)
chain: B1 chain
B3: V5-TEV-MX1 (protein, UniProt P20591 1-662)
chain: MVVSEVDIAKADPAAASHPLLLNGDATVAQKNPGSVAENNLCSQYEEKVRPCIDLIDSLRALGVEQDLALPAIAVIGDQSSGKSSVLEALSGVALPRGSGIVTRCPLVLKLKKLVNEDKWRGKVSYQDYEIEISDASEVEKEINKAQNAIAGEGMGISHELITLEISSRDVPDLTLIDLPGITRVAVGNQPADIGYKIKTLIKKYIQRQETISLVVVPSNVDIATTEALSMAQEVDPEGDRTIGILTKPDLVDKGTEDKVVDVVRNLVFHLKKGYMIVKCRGQQEIQDQLSLSEALQREKIFFENHPYFRDLLEEGKATVPCLAEKLTSELITHICKSLPLLENQIKETHQRITEELQKYGVDIPEDENEKMFFLIDKVNAFNQDITALMQGEETVGEEDIRLFTRLRHEFHKWSTIIENNFQEGHKILSRKIQKFENQYRGRELPGFVNYRTFETIVKQQIKALEEPAVDMLHTVTDMVRLAFTDVSIKNFEEFFNLHRTAKSKIEDIRAEQEREGEKLIRLHFQMEQIVYCQDQVYRGALQKVREKELEEEKKKKSWDFGAFQSSSATDSSMEEIFQHLMAYHQEASKRISSHIPLIIQFFMLQTYGQQLQKAMLQLLQDKDTYSWLLKERSDTSDKRKFLKERLARLTQARRRLAQFPG
B4: MX2-V5 (protein, UniProt P20592 1-715)
chain: MSKAHKPWPYRRRSQFSSRKYLKKEMNSFQQQPPPFGTVPPQMMFPPNWQGAEKDAAFLAKDFNFLTLNNQPPPGNRSQPRAMGPENNLYSQYEQKVRPCIDLIDSLRALGVEQDLALPAIAVIGDQSSGKSSVLEALSGVALPRGSGIVTRCPLVLKLKKQPCEAWAGRISYRNTELELQDPGQVEKEIHKAQNVMAGNGRGISHELISLEITSPEVPDLTIIDLPGITRVAVDNQPRDIGLQIKALIKKYIQRQQTINLVVVPCNVDIATTEALSMAHEVDPEGDRTIGILTKPDLMDRGTEKSVMNVVRNLTYPLKKGYMIVKCRGQQEITNRLSLAEATKKEITFFQTHPYFRVLLEEGSATVPRLAERLTTELIMHIQKSLPLLEGQIRESHQKATEELRRCGADIPSQEADKMFFLIEKIKMFNQDIEKLVEGEEVVRENETRLYNKIREDFKNWVGILATNTQKVKNIIHEEVEKYEKQYRGKELLGFVNYKTFEIIVHQYIQQLVEPALSMLQKAMEIIQQAFINVAKKHFGEFFNLNQTVQSTIEDIKVKHTAKAENMIQLQFRMEQMVFCQDQIYSVVLKKVREEIFNPLGTPSQNMKLNSHFPSNESSVSSFTEIGIHLNAYFLETSKRLANQIPFIIQYFMLRENGDSLQKAMMQILQEKNRYSWLLQEQSETATKRRILKERIYRLTQARHALCQFSSKEIH
B5: DHX30(v2)-HA (protein, UniProt Q7L2E3-3 1-1155)
chain: MAASRDLLKEFPQPKNLLNSVIGRALGISHAKDKLVYVHTNGPKKKKVTLHIKWPKSVEVEGYGSKKIDAERQAAAAACQLFKGWGLLGPRNELFDAAKYRVLADRFGSPADSWWRPEPTMPPTSWRQLNPESIRPGGPGGLSRSLGREEEEDEEEELEEGTIDVTDFLSMTQQDSHAPLRDSRGSSFEMTDDDSAIRALTQFPLPKNLLAKVIQIATSSSTAKNLMQFHTVGTKTKLSTLTLLWPCPMTFVAKGRRKAEAENKAAALACKKLKSLGLVDRNNEPLTHAMYNLASLRELGETQRRPCTIQVPEPILRKIETFLNHYPVESSWIAPELRLQSDDILPLGKDSGPLSDPITGKPYVPLLEAEEVRLSQSLLELWRRRGPVWQEAPQLPVDPHRDTILNAIEQHPVVVISGDTGCGKTTRIPQLLLERYVTEGRGARCNVIITQPRRISAVSVAQRVSHELGPSLRRNVGFQVRLESKPPSRGGALLFCTVGILLRKLQSNPSLEGVSHVIVDEVHERDVNTDFLLILLKGLQRLNPALRLVLMSATGDNERFSRYFGGCPVIKVPGFMYPVKEHYLEDILAKLGKHQYLHRHRHHESEDECALDLDLVTDLVLHIDARGEPGGILCFLPGWQEIKGVQQRLQEALGMHESKYLILPVHSNIPMMDQKAIFQQPPVGVRKIVLATNIAETSITINDIVHVVDSGLHKEERYDLKTKVSCLETVWVSRANVIQRRGRAGRCQSGFAYHLFPRSRLEKMVPFQVPEILRTPLENLVLQAKIHMPEKTAVEFLSKAVDSPNIKAVDEAVILLQEIGVLDQREYLTTLGQRLAHISTDPRLAKAIVLAAIFRCLHPLLVVVSCLTRDPFSSSLQNRAEVDKVKALLSHDSGSDHLAFVRAVAGWEEVLRWQDRSSRENYLEENLLYAPSLRFIHGLIKQFSENIYEAFLVGKPSDCTLASAQCNEYSEEEELVKGVLMAGLYPNLIQVRQGKVTRQGKFKPNSVTYRTKSGNILLHKSTINREATRLRSRWLTYFMAVKSNGSVFVRDSSQVHPLAVLLLTDGDVHIRDDGRRATISLSDSDLLRLEGDSRTVRLLKELRRALGRMVERSLRSELAALPPSVQEEHGQLLALLAELLRGPCGSFDVRKTADD

Assays:
[1] = biological target: ZAP-L-FL (FLAG-tagged ZAP-L) (human) (UniProt Q7Z2W4); experiment: co-IP; ZAP-L-FL cotransfected with tagged test proteins in 293T (or endogenous MOV10); IP on α-FLAG agarose in the presence or absence of RNase (legend: 50 μg/ml; methods: 25 μg/ml RNase HC and 25 μg/ml RNaseA); Western blot
[2] = biological target: endogenous ZAP (2102Ep cells) (human (endogenous in 2102Ep)) (UniProt Q7Z2W4); experiment: co-IP; endogenous proteins from 2102Ep cells; α-ZC3HAV1 antibody on Protein G affinity matrix, also in the presence of RNase
[3] = biological target: L1-RP ORF1p with a tandem FLAG-HA tag fused to its C-terminus, expressed from pc-L1-1FH (human) (UniProt Q9UN81); experiment: co-IP; pc-L1-1FH (ORF1p-FLAG-HA) expressed in 293T cells with tagged test proteins or with endogenous ZAP; IP of L1 RNP complexes on α-FLAG agarose without RNase; Western blot
[4] = biological target: L1-RP ORF1p with a tandem FLAG-HA tag fused to its C-terminus, expressed from pc-L1-1FH (human) (UniProt Q9UN81); experiment: co-IP; as a1, IP reaction in the presence of 50 μg/ml RNase

| Binder | binding [1] | binding [2] | binding [3] | binding [4] |
| --- | --- | --- | --- | --- |
| B1 | binds | – | – | – |
| B2 | – | binds | – | – |
| B3 | binds | – | binds | no binding (condition: with 50 μg/ml RNase) |
| B4 | binds | – | binds | no binding (condition: with 50 μg/ml RNase) |
| B5 | binds | – | – | – |
